About 14,000 (4.5%) of roughly 310,000 compounds showed an effect of 50% or more. Effects have a minus sign here. This is one part of the list.
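Note: peak tail current of the secondary pulse compared with the same well before compound.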

human ether-à-go-go-related gene (hERG) potassium channel, sequence (Q12809 whole entry, looked up): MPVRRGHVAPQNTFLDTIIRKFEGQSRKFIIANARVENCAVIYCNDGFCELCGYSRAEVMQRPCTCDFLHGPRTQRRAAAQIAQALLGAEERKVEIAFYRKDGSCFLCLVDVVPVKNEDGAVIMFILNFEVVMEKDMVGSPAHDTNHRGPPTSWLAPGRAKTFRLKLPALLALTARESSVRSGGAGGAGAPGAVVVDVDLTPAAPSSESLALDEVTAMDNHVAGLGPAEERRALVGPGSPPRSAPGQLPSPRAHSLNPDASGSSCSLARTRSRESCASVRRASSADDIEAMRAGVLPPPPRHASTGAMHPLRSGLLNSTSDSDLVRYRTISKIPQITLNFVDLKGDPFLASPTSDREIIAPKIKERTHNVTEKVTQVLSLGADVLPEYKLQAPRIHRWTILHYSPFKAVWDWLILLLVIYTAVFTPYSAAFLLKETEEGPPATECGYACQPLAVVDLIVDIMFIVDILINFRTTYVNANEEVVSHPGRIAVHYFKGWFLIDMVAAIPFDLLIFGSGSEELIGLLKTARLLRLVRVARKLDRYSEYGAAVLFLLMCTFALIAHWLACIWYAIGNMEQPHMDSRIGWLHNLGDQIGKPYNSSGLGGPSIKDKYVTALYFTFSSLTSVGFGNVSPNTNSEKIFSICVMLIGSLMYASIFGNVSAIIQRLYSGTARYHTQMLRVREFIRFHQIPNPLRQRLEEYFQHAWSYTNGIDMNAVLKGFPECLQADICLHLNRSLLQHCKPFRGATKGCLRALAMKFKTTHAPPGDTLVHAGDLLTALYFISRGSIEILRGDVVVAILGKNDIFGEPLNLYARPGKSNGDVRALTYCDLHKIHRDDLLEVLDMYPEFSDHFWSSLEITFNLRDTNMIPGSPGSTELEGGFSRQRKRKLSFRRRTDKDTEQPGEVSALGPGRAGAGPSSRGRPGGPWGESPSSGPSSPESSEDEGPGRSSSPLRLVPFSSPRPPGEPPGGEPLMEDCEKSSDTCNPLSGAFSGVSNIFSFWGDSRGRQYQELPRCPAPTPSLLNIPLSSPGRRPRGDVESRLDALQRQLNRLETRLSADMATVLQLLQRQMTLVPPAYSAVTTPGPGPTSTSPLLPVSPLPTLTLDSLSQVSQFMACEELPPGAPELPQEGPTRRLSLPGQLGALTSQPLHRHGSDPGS

The experiment concerns the target human ether-à-go-go-related gene (hERG) potassium channel (human, UniProt Q12809). The experiment is described as follows: primary screen, population patch clamp on CHO cells stably expressing hERG.
In the case of `Cl.OCCNCCNCc1ccccc1OCc1ccccc1`, the “hERG current change (%, negative = inhibition) at 10uM” value is given as 8.83%. The result for `O=C1CCCc2c1cc(C(=O)O)c(=O)n2-c1ccccc1` reads 13.9%. For `O=C(CCSCc1cccc(Cl)c1)NC1CCCC1`, the “hERG current change (%, negative = inhibition) at 10uM” value is -3.11%. As to `Cn1cnc([N+](=O)[O-])c1Sc1ccc(Br)cc1`, the “hERG current change (%, negative = inhibition) at 10uM” value is on record as -20%.

With `COc1ccccc1/C=C(/CC(=O)NCc1ccc(F)cc1)c1nc2ccccc2s1`, the “hERG current change (%, negative = inhibition) at 10uM” value is on record as 1.37%.

For `CCOC(=O)c1c(N)n(C2CC(C)(C)NC(C)(C)C2)c2nc3ccccc3nc12`, the “hERG current change (%, negative = inhibition) at 10uM” value was -44.1%. Under `N#Cc1cn(-c2ccccc2)nc1C(=O)c1ccccc1` stands -1.13%; under `Cc1ccc(/C=N/Nc2nnc(Cl)c3ccccc23)cc1`, -13%; under `O=C(Nc1ccc(N2CCCCC2)cc1)c1cccnc1`, 4.6%.

Turning to `Cc1ccc(S(=O)(=O)N2CCC(C(=O)NCc3ccccc3Cl)CC2)cc1`, the “hERG current change (%, negative = inhibition) at 10uM” value was -4.47%.

Turning to `Cc1cc(C)cc(OCC(=O)NCCc2nc3ccccc3[nH]2)c1`, the “hERG current change (%, negative = inhibition) at 10uM” value is -23%. Regarding `O=C(OCc1ccc([N+](=O)[O-])cc1)c1ccc(N2CCCC2)c([N+](=O)[O-])c1`, the “hERG current change (%, negative = inhibition) at 10uM” value is given as -14.3%. Under `O=C(O)c1ccccc1C(=O)NNc1cccc(Cl)n1` stands 13.3%.

On to `Cc1ccc(N2C(=O)NC(=O)C3(Cc4ccccc4N4CCCC43)C2=O)cc1` (stereo not drawn), for which the “hERG current change (%, negative = inhibition) at 10uM” value is -12.5%. As for `Cc1c(Cl)cccc1NC(=O)CNC(=O)C1CC(=O)N(CCc2ccccc2)C1` (stereo not drawn), the “hERG current change (%, negative = inhibition) at 10uM” value stood at 0.805%. The result for `C=C(C)Cn1c(N2CCCC2)nc2c1c(=O)n(C)c(=O)n2C` reads 13.3%. The result for `O=C1N=C(N2CCN(Cc3ccccc3)CC2)S/C1=C/c1cccs1` reads -41.1%. `CCc1ccc(CNCCc2c[nH]c3ccccc23)cc1.O=C(O)C(=O)O`: the “hERG current change (%, negative = inhibition) at 10uM” value is given as -40.9%.

Take `O=C(O)CSc1nnc(CNc2ccccc2Cl)n1-c1ccccc1`: the “hERG current change (%, negative = inhibition) at 10uM” value is -7.12%. The result for `O=C(Cn1cccc1)N1CCN(C(c2ccccc2)c2ccccc2)CC1` reads -3.68%. For the compound `O=C1CC(N2CCN(c3ccccn3)CC2)C(=O)N1c1ccc(F)cc1` (stereo not drawn), the “hERG current change (%, negative = inhibition) at 10uM” value stood at 14.7%. The result for `COc1ccc(CCNC(=O)C2CC(=O)N(c3ccccc3)C2)cc1OC` (stereo not drawn) reads -2.19%.

Consider `CC(C)[C@H](NC(=O)c1ccccc1Cl)C(=O)Nc1nc(-c2ccccn2)cs1`, for which the “hERG current change (%, negative = inhibition) at 10uM” value is reported as -8.03%.

Regarding `CCn1c(C)c(C(C)=O)c(N2CCN(c3ccccc3)CC2)nc1=S`, the “hERG current change (%, negative = inhibition) at 10uM” value is on record as -1.65%. On to `O=C(N/C(=C\c1cccc([N+](=O)[O-])c1)C(=O)N1CCOCC1)c1ccc([N+](=O)[O-])cc1`, for which the “hERG current change (%, negative = inhibition) at 10uM” value came to 12.5%. In the case of `COc1ccc2c(c1)c(C(=O)N/N=C/c1ccc(Br)cc1)c(C)n2C`, the “hERG current change (%, negative = inhibition) at 10uM” value is -64.1%. The result for `COc1ccc(Cl)cc1NC(=O)C1CC(=O)N(C2CCCCC2)C1` (stereo not drawn) reads -2.08%; that for `Cc1ccc(S(=O)(=O)Cc2ccc(C(=O)N3CCN(Cc4ccccc4)CC3)o2)cc1`, -30.1%. For the compound `CCCCc1nc2cc(C(=O)N3CCN(c4cnccn4)CC3)ccc2o1`, the “hERG current change (%, negative = inhibition) at 10uM” value is recorded as -8.31%. Under `C=CCOc1ccccc1/C=c1\sc2nc(-c3oc4ccccc4c3C)nn2c1=O` stands -8.15%; under `O=C1c2ccc(Cl)cc2S(=O)(=O)c2cccc(C(=O)N3CCC(Cc4ccccc4)CC3)c21`, 0.14%. Turning to `Cc1noc(/C=C/N(C)C)c1S(=O)(=O)N1CCN(c2ccccc2)CC1`, the “hERG current change (%, negative = inhibition) at 10uM” value is recorded as -4.87%. Regarding `CCOc1ccc(S(=O)(=O)NCc2ccncc2)cc1NC(=O)c1ccccc1`, the “hERG current change (%, negative = inhibition) at 10uM” value is given as -37.7%. The result for `CCCC(=O)Nc1cc(C)c(NC(=O)c2ccccn2)cn1` reads 5.43%; that for `Cc1ccc(OCC(=O)N/N=C/c2ccc([N+](=O)[O-])o2)cc1`, -39.8%; that for `CN(C)S(=O)(=O)c1cccc(NC(=O)CN2C(=O)NC(CCc3ccccc3)C2=O)c1` (stereo not drawn), -7.36%. Under `O=C(C1CCCN(Cc2ccccc2Cl)C1)N1CCCCC1.O=C(O)C(=O)O` (stereo not drawn) stands 9.1%; under `CC(C)(C)c1[nH]nc2c1C(c1ccncc1)C(C#N)=C(N)O2` (stereo not drawn), 6.04%; under `Cc1ccc(-c2nc(CN(C)C3CCOCC3)c(C)o2)s1`, -27.7%. Under `COc1ccc(/C(O)=C2/C(=O)C(=O)N(CC3CCCO3)C2c2cccc(OC)c2)cc1` (stereo not drawn) stands 11.1%; under `CC1CCN(S(=O)(=O)c2cccc(C(=O)Oc3ccc([N+](=O)[O-])cc3)c2)CC1`, -28.1%. In the case of `O=C(CCCSc1ccccc1)Nc1nc(-c2ccco2)c(-c2ccco2)s1`, the “hERG current change (%, negative = inhibition) at 10uM” value is on record as -0.216%. The result for `COc1cc2c(cc1OC)-c1c(OC)c(OC)cc3ccnc(c13)C2=O` reads -30.7%. Under `Cl.N=c1ccn(CC(=O)NC(N)=O)c2ccccc12` stands -1.56%; under `Cc1cccc(Nc2ccncc2S(N)(=O)=O)c1`, 0.246%. The result for `NCC(c1ccccc1)c1c[nH]c2ccccc12` (stereo not drawn) reads 13.2%; that for `O=C(CCN1C(=O)c2ccncc2C1=O)Nc1ccc2c(c1)OCCO2`, -4.56%. Regarding `CC(=O)Nc1ccc(S(=O)(=O)NCCC(=O)N2CCc3ccccc32)cc1`, the “hERG current change (%, negative = inhibition) at 10uM” value is 17.2%. The result for `O=C(O)CSCC(=O)N1CCN(c2ncnc3scc(-c4ccccc4)c23)CC1` reads 25.4%; that for `O=C(O)c1nccnc1C(=O)Nc1ccccc1-c1ccccc1`, -0.583%. The result for `CCOC(=O)Cn1ccc(NC(=O)c2ccc3c(c2)OCO3)n1` reads 6.64%; that for `Cc1cc(C)nc(NS(=O)(=O)c2ccc(NC(=O)c3ccccc3C)cc2)n1`, 15%. Under `O=C(CSc1nnc(CNC(=O)c2ccco2)o1)NC1CCCC1` stands 0.367%; under `COCCCNC(=O)c1ccc2c(=O)n(Cc3ccc(Cl)cc3)c(=S)[nH]c2c1`, 10.9%. Regarding `CC1(C)CC2CC(C)(CN2C(=S)Nc2ccccc2F)C1` (stereo not drawn), the “hERG current change (%, negative = inhibition) at 10uM” value turned out to be 4.05%. Under `Cc1cc(=O)nc2c3ccccc3n(C(C)C(=O)NCCC(C)C)n12` (stereo not drawn) stands 17.2%. The result for `COc1ccc(CN(Cc2nc3ccccc3c(=O)[nH]2)C(=O)NC2CCCCC2)cc1` reads -15.9%; that for `Cc1ccccc1OCC(O)CN1C(=O)c2ccccc2C1=O` (stereo not drawn), 4.28%; that for `COC(=O)CCCC(=O)NC1CCCc2c1cnn2-c1ccc(F)cc1F` (stereo not drawn), 17.3%.

For `O=C(CSc1nncn1-c1ccccc1)N1CCCC1`, the “hERG current change (%, negative = inhibition) at 10uM” value is 2.66%. `COc1cc(/C=C/C(=O)O)cc(S(=O)(=O)NC2CC2)c1OC`: the “hERG current change (%, negative = inhibition) at 10uM” value was 0.679%. `O=C(CN(C(=O)CCC(=O)Nc1nccs1)c1ccccc1F)NCc1ccc2c(c1)OCO2`: the “hERG current change (%, negative = inhibition) at 10uM” value turned out to be 10.6%. As for `O=C(c1ccc(CS(=O)(=O)c2ccc(Br)cc2)o1)N1CCN(c2ncccn2)CC1`, the “hERG current change (%, negative = inhibition) at 10uM” value was -42.4%. For `COc1ccc(C(=O)NCC2(c3ccc(OC)c(OC)c3)CCCC2)c(OC)c1`, the “hERG current change (%, negative = inhibition) at 10uM” value is -30.1%. As for `CC(=O)N(c1ccc(Cl)cc1)c1cn(C(C)=O)c2ccccc12`, the “hERG current change (%, negative = inhibition) at 10uM” value is listed as -11.8%. On to `Cc1nc(-c2ccc(F)cc2)c(CC(=O)Nc2ccc(C)c(S(=O)(=O)N3CCOCC3)c2)s1`, for which the “hERG current change (%, negative = inhibition) at 10uM” value is -26.2%. For the compound `O=C1CCC(C(=O)Nc2cccc3ccccc23)N1` (stereo not drawn), the “hERG current change (%, negative = inhibition) at 10uM” value is given as -1.25%. Under `CCOC(=O)c1c(CCl)nc2ccccc2c1-c1ccccc1` stands 5.72%; under `N#C/C(=C(/O)COC(=O)COc1cccc(Br)c1)c1nc2ccccc2[nH]1`, 12.5%. Regarding `Cc1cc(C)n(-c2cccc(C(=O)O)c2)n1`, the “hERG current change (%, negative = inhibition) at 10uM” value is listed as 6.16%.

As for `O=C1CCN(S(=O)(=O)c2ccccc2)CCN1CCOCc1cccc(F)c1`, the “hERG current change (%, negative = inhibition) at 10uM” value is recorded as -1.98%.

Turning to `CCOC(=O)CC(=O)CSc1nnc2sc3ccccc3n12`, the “hERG current change (%, negative = inhibition) at 10uM” value is given as 7.59%. `COc1ccc(N2CCN(C(=O)c3cc(C)on3)CC2)cc1`: the “hERG current change (%, negative = inhibition) at 10uM” value worked out at 6.64%. The result for `N#CC1=C(N)Oc2n[nH]c(-c3ccc(F)cc3)c2C1c1ccncc1` (stereo not drawn) reads 9.26%; that for `CC1CCC(NC(=O)C(C)N2C(=O)C3CCCCC3C2=O)CC1` (stereo not drawn), 11.2%; that for `CCN1CCN(C(=O)CS(=O)Cc2nc(-c3cccc(C)c3)oc2C)CC1` (stereo not drawn), 3.36%.

As for `O=C1C(c2cc(=O)c3ccccc3[nH]2)=C(O)c2ccccc21`, the “hERG current change (%, negative = inhibition) at 10uM” value is 13.2%. The result for `COc1cc(C(=O)NCc2nc(C)cs2)ccc1OC1CCN(C(C)=O)CC1` reads 6.58%. The result for `O=C(O)COc1ccccc1/C=N/NC(=O)CN1CCN(Cc2ccccc2Cl)CC1` reads -0.129%; that for `Cc1cccc(Cn2cnc3c(nnn3Cc3ccccc3F)c2=O)c1`, -36.9%.

Take `O=C(CN1CCN(Cc2ccccc2F)C1=O)NCCc1ccc(Cl)cc1`: the “hERG current change (%, negative = inhibition) at 10uM” value is reported as -52.8%.

Turning to `CC(C)N(Cc1ccccc1)C(=O)CN1C(=O)c2ccccc2C1=O`, the “hERG current change (%, negative = inhibition) at 10uM” value worked out at 4.96%. Regarding `NC(=S)N/N=C/c1cccc(Br)c1`, the “hERG current change (%, negative = inhibition) at 10uM” value was 1.68%.

In the case of `CCc1cc2c(-c3ccccc3)cc(=O)oc2cc1OC(C)C(=O)NCC1CCC(C(=O)O)CC1` (stereo not drawn), the “hERG current change (%, negative = inhibition) at 10uM” value amounted to 12.5%.

For the compound `Cc1cc(S(=O)(=O)N2CCN(CC(=O)NCCc3cccs3)CC2)ccc1Br`, the “hERG current change (%, negative = inhibition) at 10uM” value was -29.6%. `Cc1cccc(-c2nc(Nc3ccc(O)cc3)c3ccccc3n2)c1`: the “hERG current change (%, negative = inhibition) at 10uM” value stood at 11.3%.

As for `CC(Sc1nnc(COc2ccc([N+](=O)[O-])cc2)n1C)C(=O)O` (stereo not drawn), the “hERG current change (%, negative = inhibition) at 10uM” value is listed as 14.6%.
